Source: PubChem BioAssay AID1347073 (National Center for Advancing Translational Sciences (NCATS), 2019)
Out of some 45,000 compounds screened, about 200 (0.44%) were called active. Roughly 7% stayed inconclusive and do not appear here. Calls come from the whole dose curve; as a rule, active = well fitted activation curve with a large enough effect; inconclusive = small, poorly fitted or top-dose-only effect; inactive = no such curve, though single readings can be large or run the other way. The list shows a part of the results.

Test: qHTS of TDP-43 Inhibitors: NCGC Sytravon Library Screen; note: 0% is about no effect; nearly all actives have a fitted effect of over 55% in size
Details: yeast TDP-43 toxicity rescue, BacTiter-Glo growth, 24 h; series mostly up to 46.1 µM; growth rescue (activation): at the top concentration
Procedure, shortened: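 TDP-43-expressing yeast, pregrown in raffinose, seeded at OD600 0.02 in galactose medium with compound for 24 hr at 30 deg C. Growth read by BacTiter-Glo luminescence, so rescue of toxicity appears as activation.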

SMILES	growth rescue (activation)
COC(=O)CNC(=O)CSc1nnc(C)c(=O)[nH]1	inactive: 9.44%
O=C(NCC(c1ccco1)N1CCCCC1)c1ccc([N+](=O)[O-])s1 (stereo not drawn)	inactive: 15.4%
COc1ccccc1C(=O)N1CCN(Cc2c[nH]c3ccccc23)CC1	inactive: 0.031%
O=C(c1cc(F)c(F)c(F)c1F)N1CCN(C(=O)C2CCCO2)CC1 (stereo not drawn)	inactive: 5.65%
CCC(C(=O)N1CCc2ccccc2C1)n1nc(C)n2c(cc3occc32)c1=O (stereo not drawn)	inactive: -12.1%
Cc1nnc(Nc2ccc(C(=O)O)cc2)[nH]c1=O	inactive: -5.94%
COc1ccc(C(C(=O)NC2CCCC2)N(C(=O)c2ccoc2C)c2ccc(C)c(C)c2)cc1 (stereo not drawn)	inactive: 1.01%
COC(=O)CSc1nc2c(c(-c3ccc(O)cc3)c1C#N)CCCC2	inactive: -19.3%
CNC(=S)Nc1ccc2nc(C)oc2c1	inactive: 8.47%
COc1ccc(C(=O)N2CCN(C(=O)COc3ccc(C)cc3)CC2)cc1OC	inactive: 2.51%
O=C(NCCc1ccccc1)C(=S)N1CCCCC1	inactive: 12.5%
O=C(C[n+]1cccc(C(=O)N/N=C/c2cccc([N+](=O)[O-])c2)c1)c1ccccc1	inactive: 14.4%
CCOC(=O)c1ccc(N2C(=O)Cc3ccccc3C2=O)cc1	inactive: 3.39%
CNC(=O)c1ccc(Nc2nnc(-c3ccc(C)c(S(=O)(=O)NCC4CCCO4)c3)c3ccccc23)cc1 (stereo not drawn)	inactive: 0.492%
COCCNc1nc2cc(-c3ccsc3)sc2c(=O)n1C	inactive: 21.2%
CCN(CC(=O)Nc1ccc(C)c(F)c1)CC(=O)NC(C)(C)C	inactive: -3.6%
COc1cc(C(=O)Nc2ccc(S(=O)(=O)Nc3nccc(C)n3)cc2)c([N+](=O)[O-])cc1OC	inactive: -4.66%
Clc1ccc(C[n+]2cc(-c3ccccc3)n3c2CCC3)cc1Cl	inactive: -22.7%
CCOc1ccc(/C=C2\SC(=S)NC2=O)cc1OC	inactive: 5.58%
COc1ccc(C(O)c2nc(-c3cccc(NC(C)=O)c3)cs2)cc1 (stereo not drawn)	inactive: -1.05%
CCC(=O)OCCNc1cc(Sc2nc3ccccc3[nH]2)c2nonc2c1[N+](=O)[O-]	inactive: -21.4%
CCCc1nc(NCc2ccco2)c(C#N)c2c1COC(C)(C)C2	inactive: -13%
COc1ccc(CCNC(=O)c2cc3c(=O)n4cccc(C)c4nc3s2)cc1OC	inactive: 0.974%
CCC1=NN2C(=N)/C(=C\c3ccc(SCc4ccco4)o3)C(=O)N=C2S1	inactive: 12.7%
COc1cc(/C=N\NC(=O)CNC(=O)C(c2ccccc2)c2ccccc2)ccc1O	inactive: 11.7%
O=C(c1cn(-c2ccccc2)nc1-c1ccccc1)N1CCN(c2ccccn2)CC1	inactive: 14.9%
CCn1nc(C)c(CNC(=O)CCc2nnc(Cc3c[nH]c4ccccc34)o2)c1C	inactive: -6.13%

SMILES	growth rescue (activation)
Cc1ccc(/C=C/C(=O)Nc2ccc(N(C)C)cc2)o1	inactive: 0.323%
CN(C)c1ccc(NC(=O)Cc2ccccc2)c2ccccc12	inactive: -0.035%
COC(=O)c1ccc(Cl)c(S(=O)(=O)N2CCCC2)c1	inactive: 2.77%
N#CCCNc1c(Cl)cc(Cl)cc1C(=O)O	inactive: 0.384%
O=C(O)COc1cnc2ccccc2n1	inactive: -25.2%
COc1ccc(CC(N)c2csc(NC(=O)Nc3ccccc3Cc3ccccc3)n2)cc1 (stereo not drawn)	inactive: 4.7%
Cc1ccc(-n2ncc3c(=O)[nH]c(SCC(=O)N4CC(=O)Nc5ccccc54)nc32)cc1	inactive: 6.23%
CN(C)S(=O)(=O)c1ccc(Cl)c(C(=O)Nc2cccc3ncccc23)c1	inactive: 8.92%
CC(=O)C1=C(O)C(=O)N(C)C1c1ccccc1[N+](=O)[O-] (stereo not drawn)	inactive: -13.3%
COC(=O)c1ccc2c(c1)C(=O)/C(=C/c1ccc(O)cc1)O2	inactive: -13.7%
CCOC(=O)c1ccc(NC(=O)c2nsc3ccccc23)cc1	inactive: 0.307%
Cc1ccccc1C(=O)NC=C1C(=O)OC(C)(C)OC1=O	inactive: -22.4%
NS(=O)(=O)c1ccc(Cl)c(S(N)(=O)=O)c1	inactive: -2.43%
O=C(C1CCC(=O)N(C2CC2)C1)N1CCN(c2cccc(Cl)c2)CC1 (stereo not drawn)	inactive: 8.11%
Cc1cc(F)cc(-c2cc(C(=O)NCc3ccccn3)[nH]n2)c1	inactive: 6.38%
CCN1C(=O)C2(C(C(=O)c3ccc(C)o3)=C(O)C(=O)N2CCCN(C)C)c2ccccc21 (stereo not drawn)	inactive: 2.57%
COc1ccc(-c2nc(NC(=O)c3nc4nccc(C)n4n3)sc2C)cc1	inactive: 12.6%
N#Cc1ccc(C(=O)Nc2cccc(S(=O)(=O)NC3=NCCC3)c2)cc1	inactive: 0.722%
CCNC(=O)C1(C)CCCN(Cc2ccc(Oc3ccccc3)cc2)C1 (stereo not drawn)	inactive: 12.6%
Cc1ccc(C)c(-n2c(N)c(C(N)=O)sc2=S)c1	inactive: 13.7%
COc1ccc(C(=O)N2CCc3cc(OC)c(OC)cc3C2c2ccc(OC)c(OC)c2)cc1 (stereo not drawn)	inactive: -2.68%
COc1ccc(C(=O)On2c(-c3ccc(Br)cc3)nc3ccccc3c2=O)cc1	inactive: -29.4%
O=C(c1cccs1)N1CCN(Cc2ccccc2[N+](=O)[O-])CC1	inactive: 2.38%
Cc1ccc(C(=O)Nc2cc3cc(Cl)ccc3oc2=O)cc1	inactive: 9.53%
CCc1nc2c(OCc3ccc(F)cc3)cccn2c1N(C)C(=O)C(C)C	inactive: 2.1%
CC(OC(=O)c1cnc2ccccc2n1)c1ccccc1Cl (stereo not drawn)	inactive: 11.8%
